The record followed here is paper PMC4336329 (PLoS ONE, 2015).

In all, about 310,000 compounds went through this assay and about 14,000 (4.5%) showed an effect of 50% or more. Effects have a minus sign here. Some of the results follow.
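Also: peak tail current of the secondary pulse compared with the same well before compound.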

human ether-à-go-go-related gene (hERG) potassium channel, sequence (Q12809 whole entry, looked up): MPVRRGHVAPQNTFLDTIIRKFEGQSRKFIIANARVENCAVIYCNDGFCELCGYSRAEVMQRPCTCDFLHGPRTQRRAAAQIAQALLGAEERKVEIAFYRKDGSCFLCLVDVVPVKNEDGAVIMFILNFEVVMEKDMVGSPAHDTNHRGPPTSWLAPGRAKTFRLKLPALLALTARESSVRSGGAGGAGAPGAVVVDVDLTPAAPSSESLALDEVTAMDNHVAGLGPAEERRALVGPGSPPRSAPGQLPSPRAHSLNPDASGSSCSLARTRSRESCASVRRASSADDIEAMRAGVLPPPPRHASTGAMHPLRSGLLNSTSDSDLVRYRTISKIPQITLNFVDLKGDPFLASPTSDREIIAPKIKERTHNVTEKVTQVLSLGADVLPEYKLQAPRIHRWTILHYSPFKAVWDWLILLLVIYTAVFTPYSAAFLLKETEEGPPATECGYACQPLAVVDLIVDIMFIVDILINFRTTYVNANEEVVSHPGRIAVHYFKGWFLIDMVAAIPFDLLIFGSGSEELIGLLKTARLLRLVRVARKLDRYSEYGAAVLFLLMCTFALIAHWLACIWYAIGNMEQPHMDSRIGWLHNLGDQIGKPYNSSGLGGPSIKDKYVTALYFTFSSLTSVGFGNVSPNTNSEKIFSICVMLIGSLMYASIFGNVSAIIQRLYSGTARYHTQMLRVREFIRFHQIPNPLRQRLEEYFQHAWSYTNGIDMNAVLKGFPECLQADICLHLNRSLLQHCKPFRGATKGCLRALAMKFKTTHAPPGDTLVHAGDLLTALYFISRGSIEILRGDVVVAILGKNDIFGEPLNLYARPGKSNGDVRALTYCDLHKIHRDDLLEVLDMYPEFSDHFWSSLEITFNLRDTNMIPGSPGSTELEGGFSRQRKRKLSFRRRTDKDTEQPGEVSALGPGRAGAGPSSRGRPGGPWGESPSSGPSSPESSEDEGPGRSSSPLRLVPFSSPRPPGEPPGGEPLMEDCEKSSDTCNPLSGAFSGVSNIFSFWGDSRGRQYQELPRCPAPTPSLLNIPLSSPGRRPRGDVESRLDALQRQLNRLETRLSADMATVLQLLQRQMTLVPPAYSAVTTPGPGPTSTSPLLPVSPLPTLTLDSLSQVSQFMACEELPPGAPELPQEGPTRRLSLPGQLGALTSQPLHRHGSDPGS

This experiment addresses human ether-à-go-go-related gene (hERG) potassium channel (human, UniProt Q12809). As to the kind of experiment: primary screen, population patch clamp on CHO cells stably expressing hERG.
Regarding `O=C(CNC(=O)c1ccncc1)N/N=C/c1cc(Br)ccc1O`, the “hERG current change (%, negative = inhibition) at 10uM” value was -18.2%. To `O=C(c1cccc(C(F)(F)F)c1)N1CCC(O)(CS(=O)(=O)Cc2ccccc2)CC1` belongs -0.547%.

For the compound `CC(C)COc1ccc(C(=O)NC(=S)Nc2ccc(CN3CCOCC3)cc2)cc1`, the “hERG current change (%, negative = inhibition) at 10uM” value was 12.1%.

With `CCc1ccc(NC(=O)c2c(Cl)nc(C)c(Cl)c2C)cc1`, the “hERG current change (%, negative = inhibition) at 10uM” value is -3.57%. In the case of `CN(CCC#N)C(=O)COC(=O)c1ccc(CNS(=O)(=O)c2ccc(F)c(Cl)c2)cc1`, the “hERG current change (%, negative = inhibition) at 10uM” value is -22.4%. With `Cn1ccnc1P(=S)(c1nccn1C)c1nccn1C` the figure was -0.952%; with `S=C(NCCc1ccc(Cl)cc1)NCc1ccccc1`, -18.5%; with `CC(C)c1ccc(C2/C(=C(/O)c3ccccc3)C(=O)C(=O)N2CCCN2CCOCC2)cc1` (stereo not shown), 25.6%.

With `Cc1[nH]nc2oc(=O)c(CCO)c(C)c12`, the “hERG current change (%, negative = inhibition) at 10uM” value is listed as -8.97%. For `O=C(Cn1cnc2ccccc21)Nc1ccc2c(c1)OCCCO2`, the “hERG current change (%, negative = inhibition) at 10uM” value was -3.29%. With `Cc1cc(C)cc(NC(=O)COC(=O)CCC2CCCC2)c1` the figure was 10.7%; with `Cc1ccc(NC(=O)C2CC(O)CN2C(=O)OCc2ccccc2)c(C)c1` (stereo not shown), 13.7%. For the compound `CC(C)NS(=O)(=O)c1ccc(CCC(=O)NCc2ccco2)cc1`, the “hERG current change (%, negative = inhibition) at 10uM” value is -0.0648%. For the compound `CCCCOC(=O)Nc1ccc(C(N)=O)cc1`, the “hERG current change (%, negative = inhibition) at 10uM” value was -6.35%. With `Cc1ccc(S(=O)(=O)N2CCN(C(=O)COC(=O)c3cccnc3Cl)CC2)c(C)c1`, the “hERG current change (%, negative = inhibition) at 10uM” value is given as -7.65%.

Consider `CCC(=O)N1CCCc2cc(S(=O)(=O)CCC(=O)Nc3ccccc3C)ccc21`, for which the “hERG current change (%, negative = inhibition) at 10uM” value is recorded as 1.55%.

In the case of `CC(C)(C)OC(=O)N[C@H](C(=O)OC(C)(C)C)c1ccc2ccccc2c1`, the “hERG current change (%, negative = inhibition) at 10uM” value turned out to be 3.18%. As to `COC(=O)c1ccc(NS(=O)(=O)c2cccc3cccnc23)cc1`, the “hERG current change (%, negative = inhibition) at 10uM” value is 33.3%. `C=CCN1C(=O)C(Cc2ccc(OCC)cc2)S/C1=N\N=C\c1cccs1` (stereo not shown): the “hERG current change (%, negative = inhibition) at 10uM” value is listed as 2.79%. With `Clc1cc(Cl)cc(NC2=NCCS2)c1`, the “hERG current change (%, negative = inhibition) at 10uM” value is recorded as -10.4%. For `O=S(=O)(c1cccs1)N1CCCc2cccc(O)c21`, the “hERG current change (%, negative = inhibition) at 10uM” value came to 7.34%. Regarding `COC(=O)c1ccccc1NC(=O)C1CCN(c2ncnc3c2nc2n3CCCCC2)CC1`, the “hERG current change (%, negative = inhibition) at 10uM” value is -24.9%. Regarding `CCn1cc(CN2CCC(C(=O)Nc3cccc(-c4cccc(Cl)c4)c3)CC2)cn1`, the “hERG current change (%, negative = inhibition) at 10uM” value is reported as -67.9%. Regarding `O=C(Cc1cccs1)N/N=C/C=C/c1ccco1`, the “hERG current change (%, negative = inhibition) at 10uM” value is -0.423%. Consider `Cc1ccc(C(=O)Oc2cccc(NC(=O)c3ccco3)c2)cc1S(=O)(=O)N1CCC(C)CC1`, for which the “hERG current change (%, negative = inhibition) at 10uM” value was -12.1%.

`O=S1(=O)N=C(Nc2ccc(O)c(CN3CCCCC3)c2)c2ccccc21`: the “hERG current change (%, negative = inhibition) at 10uM” value is on record as -21.3%.

As to `O=C1/C(=C\c2ccc(-c3ccccc3Cl)o2)SC(=S)N1CC1CCCO1` (stereo not shown), the “hERG current change (%, negative = inhibition) at 10uM” value turned out to be 1.06%. Take `CC(C)CC(CO)N1CCN(C(=O)c2ccc(Cl)c(Cl)c2)CCC1=O` (stereo not shown): the “hERG current change (%, negative = inhibition) at 10uM” value was found to be 4.77%. As for `CCOc1cccc(CNc2ccc(O)cc2)c1OCc1ccc(Cl)cc1Cl`, the “hERG current change (%, negative = inhibition) at 10uM” value was 1.69%. `COC(=O)[C@@]1(Cc2ccc(OC)cc2)[C@H]2c3cc(C(=O)N4CCCC4)n(CCn4cc([N+](=O)[O-])nc4C)c3C[C@H]2CN1C(=O)c1ccccc1`: the “hERG current change (%, negative = inhibition) at 10uM” value is on record as 2.3%. As for `CC(=O)c1ccc(N2CCN(S(=O)(=O)c3ccccc3)CC2)c(F)c1`, the “hERG current change (%, negative = inhibition) at 10uM” value was -15.8%. For `NC(=S)N=Nc1c(O)n(CC(=O)Nc2ccccc2)c2ccccc12`, the “hERG current change (%, negative = inhibition) at 10uM” value is on record as 16.4%.

With `Nc1nc2c(C(=O)N3CCOCC3)nnn2c2ccccc12`, the “hERG current change (%, negative = inhibition) at 10uM” value came to 14%. With `CCNC(=S)N/N=C(\C)c1ccc(N2CCOCC2)cc1`, the “hERG current change (%, negative = inhibition) at 10uM” value is 13.7%. As for `Fc1cccc(/C=N/Nc2nccnc2Cl)c1`, the “hERG current change (%, negative = inhibition) at 10uM” value is 10.7%. For the compound `CCC(C)NC(=O)c1ccc(N2CC3CC(C2)c2cccc(=O)n2C3)c(NC(=O)c2ccc(Br)o2)c1` (stereo not shown), the “hERG current change (%, negative = inhibition) at 10uM” value was 5.86%. With `CCOC(=O)N1CCN(C(=O)c2cc3cc(Cl)ccc3[nH]2)CC1`, the “hERG current change (%, negative = inhibition) at 10uM” value is recorded as -15.7%. Turning to `NS(=O)(=O)c1ccc(CCNS(=O)(=O)c2cccc3cccnc23)cc1`, the “hERG current change (%, negative = inhibition) at 10uM” value was determined as 4.78%. For the compound `Cc1nc2ccc(C(=O)N3CCN(c4ccccn4)CC3)cc2s1`, the “hERG current change (%, negative = inhibition) at 10uM” value was found to be 10.2%. With `O=C(COC(=O)C1CCN(c2ccc(C(F)(F)F)cn2)CC1)Nc1cc(F)ccc1F`, the “hERG current change (%, negative = inhibition) at 10uM” value was found to be 15.4%.

On to `COCCN(C(=O)CSc1nnc(-c2cccc(C)c2)n1C)c1c(N)n(Cc2ccccc2)c(=O)[nH]c1=O`, for which the “hERG current change (%, negative = inhibition) at 10uM” value is reported as 8.29%.

In the case of `CC(=O)c1cccc(NC(=O)N2C3CCC2CC(NC(=O)C2CC2)C3)c1` (stereo not shown), the “hERG current change (%, negative = inhibition) at 10uM” value is on record as 16.3%.

For the compound `C=CCOc1ccc(/C=C2\SC(N3CCCCC3)=NC2=O)cc1`, the “hERG current change (%, negative = inhibition) at 10uM” value is on record as 12.2%. With `O=C([O-])c1cc(-c2ccccc2)cc(-c2ccccc2)[n+]1Cc1ccccc1` the figure was -10.1%. Consider `Cc1ccc(OCC(=O)NCc2cccs2)c([N+](=O)[O-])n1`, for which the “hERG current change (%, negative = inhibition) at 10uM” value is reported as -19%. With `COc1ccc(C(=O)NCc2nnc(SCC(=O)Nc3cccc(F)c3)o2)cc1` the figure was -1.96%.

With `O=C(CSc1nnc(-c2ccc(F)cc2)o1)N1CCN(C(=O)c2ccco2)CC1`, the “hERG current change (%, negative = inhibition) at 10uM” value is -38.4%.

Turning to `CCOC(=O)c1sc(C)c2c1NC(C)(c1ccccc1)NC2=O` (stereo not shown), the “hERG current change (%, negative = inhibition) at 10uM” value is on record as 2.4%. As for `COc1ccccc1OCCCC(=O)Nc1nnc(C2CCCO2)s1` (stereo not shown), the “hERG current change (%, negative = inhibition) at 10uM” value is reported as 8.75%. In the case of `O=C(CC1C(=O)NCCN1Cc1ccccc1F)NC1CCCCCC1` (stereo not shown), the “hERG current change (%, negative = inhibition) at 10uM” value came out at 5.01%. As for `Cc1ccc(OCC(=O)Nc2cnn(CCCC(=O)O)c2)c([N+](=O)[O-])c1`, the “hERG current change (%, negative = inhibition) at 10uM” value was 3.59%. In the case of `CCOc1ccccc1NC(=O)NCc1ccc2c(c1)OCO2`, the “hERG current change (%, negative = inhibition) at 10uM” value was determined as 22.4%.

Consider `CC(=O)Nc1cccc(OC(=O)COc2ccc(Br)cc2)c1`, for which the “hERG current change (%, negative = inhibition) at 10uM” value is reported as -1.19%. Regarding `O=C1NCCCC1C(=O)N/N=C/c1cccc(Cl)c1` (stereo not shown), the “hERG current change (%, negative = inhibition) at 10uM” value came to 22.8%.

As to `O=C(Cc1ccccc1)NC1CCN(S(=O)(=O)c2ccc(C(=O)O)cc2)CC1`, the “hERG current change (%, negative = inhibition) at 10uM” value stood at 5.11%.
